Data on 63 sequences can be found in paper PMC12820563.

The other results are listed elsewhere or left out. The list includes weakly bound sequences.

This assay concerns the target T1, MBP-FoxP3dN (UniProt Q99JB6).
T1 sequence: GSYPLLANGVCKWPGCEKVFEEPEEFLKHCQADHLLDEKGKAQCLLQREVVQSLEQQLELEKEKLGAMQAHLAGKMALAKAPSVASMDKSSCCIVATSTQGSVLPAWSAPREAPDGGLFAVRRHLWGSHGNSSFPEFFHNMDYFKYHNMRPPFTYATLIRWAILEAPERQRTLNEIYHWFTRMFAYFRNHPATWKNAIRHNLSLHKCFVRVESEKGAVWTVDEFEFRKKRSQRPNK
As to the kind of experiment: PD-seq (MBP pull-down with sequencing). The following applies: 20 mM Tris-HCl pH 7.5, 100 mM NaCl, 1.5 mM MgCl2, 0.4 uM protein, 0.1 uM dsDNA library, 30 min, room temperature, amylose pull-down; high values mean tight binding; double strand, one strand shown.
As for “GATGATTGTTCTCCCAGCTGATGAATTTTAATGGTCGAGTAAACAAATTTTCCTAATCTTTCTGTTCAAGCGCCATCTAC”, the binding signal (RPM ratio (pull-down/input)) was found to be 0.647.
Next, “GATGATTGTTCTCCCAGCTGATGAATTGGGGAGATCGAGTAAACAAATTTTCCTAATCTTTCTGTTCAAGCGCCATCTAC”: 0.248.
Next, “GATGATTGTTCTCCCAGCTGATGAATTGTCCGTATCGAGTAAACAAATTTTCCTAATCTTTCTGTTCAAGCGCCATCTAC”: 0.432; “GATGATTGTTCTCCCAGCTGATGAATTTGCATGCTCGAGTAAACAAATTTTCCTAATCTTTCTGTTCAAGCGCCATCTAC”: 3.98.
Next, “GATGATTGTTCTCCCAGCTGATGAATTGTATAAATCGAGTAAACAAATTTTCCTAATCTTTCTGTTCAAGCGCCATCTAC”: 0.638; “GATGATTGTTCTCCCAGCTGATGAATTTCTTTCATCGAGTAAACAAATTTTCCTAATCTTTCTGTTCAAGCGCCATCTAC”: 0.295; “GATGATTGTTCTCCCAGCTGATGAATTAACCTCATCGAGTAAACAAATTTTCCTAATCTTTCTGTTCAAGCGCCATCTAC”: 0.352.
On to “GATGATTGTTCTCCCAGCTGATGAATTGTACGAGTCGAGTAAACAAATTTTCCTAATCTTTCTGTTCAAGCGCCATCTAC”, for which the binding signal (RPM ratio (pull-down/input)) is 0.325.
Under “GATGATTGTTCTCCCAGCTGATGAATTTATCAAGTCGAGTAAACAAATTTTCCTAATCTTTCTGTTCAAGCGCCATCTAC” stands 0.32.
Next, “GATGATTGTTCTCCCAGCTGATGAATTATACACTTCGAGTAAACAAATTTTCCTAATCTTTCTGTTCAAGCGCCATCTAC”: 0.66; “GATGATTGTTCTCCCAGCTGATGAATTTGGCGCATCGAGTAAACAAATTTTCCTAATCTTTCTGTTCAAGCGCCATCTAC”: 1.42.
As for “GATGATTGTTCTCCCAGCTGATGAATTAGGCGAGTCGAGTAAACAAATTTTCCTAATCTTTCTGTTCAAGCGCCATCTAC”, the binding signal (RPM ratio (pull-down/input)) was determined as 0.64.
For the sequence “GATGATTGTTCTCCCAGCTGATGAATTGCCTGTATCGAGTAAACAAATTTTCCTAATCTTTCTGTTCAAGCGCCATCTAC”, the binding signal (RPM ratio (pull-down/input)) turned out to be 1.19.
Under “GATGATTGTTCTCCCAGCTGATGAATTCTGTAATTCGAGTAAACAAATTTTCCTAATCTTTCTGTTCAAGCGCCATCTAC” stands 2.07.
Next, “GATGATTGTTCTCCCAGCTGATGAATTAGACGAGTCGAGTAAACAAATTTTCCTAATCTTTCTGTTCAAGCGCCATCTAC”: 0.251; “GATGATTGTTCTCCCAGCTGATGAATTTCTATGATCGAGTAAACAAATTTTCCTAATCTTTCTGTTCAAGCGCCATCTAC”: 0.277; “GATGATTGTTCTCCCAGCTGATGAATTCAGGCCTTCGAGTAAACAAATTTTCCTAATCTTTCTGTTCAAGCGCCATCTAC”: 1.2.
Next, “GATGATTGTTCTCCCAGCTGATGAATTCATAAATTCGAGTAAACAAATTTTCCTAATCTTTCTGTTCAAGCGCCATCTAC”: 0.319.
On to “GATGATTGTTCTCCCAGCTGATGAATTAATGGTCTCGAGTAAACAAATTTTCCTAATCTTTCTGTTCAAGCGCCATCTAC”, for which the binding signal (RPM ratio (pull-down/input)) came out at 0.824.
Under “GATGATTGTTCTCCCAGCTGATGAATTTATATGTTCGAGTAAACAAATTTTCCTAATCTTTCTGTTCAAGCGCCATCTAC” stands 3.12.
Under “GATGATTGTTCTCCCAGCTGATGAATTTCTGTATTCGAGTAAACAAATTTTCCTAATCTTTCTGTTCAAGCGCCATCTAC” stands 1.38.
Under “GATGATTGTTCTCCCAGCTGATGAATTGTTTAGCTCGAGTAAACAAATTTTCCTAATCTTTCTGTTCAAGCGCCATCTAC” stands 3.66; under “GATGATTGTTCTCCCAGCTGATGAATTTAATACATCGAGTAAACAAATTTTCCTAATCTTTCTGTTCAAGCGCCATCTAC”, 0.619.
Regarding “GATGATTGTTCTCCCAGCTGATGAATTGGGATGTTCGAGTAAACAAATTTTCCTAATCTTTCTGTTCAAGCGCCATCTAC”, the binding signal (RPM ratio (pull-down/input)) is 0.774.
“GATGATTGTTCTCCCAGCTGATGAATTGCCTACATCGAGTAAACAAATTTTCCTAATCTTTCTGTTCAAGCGCCATCTAC”: the binding signal (RPM ratio (pull-down/input)) turned out to be 0.721.
Under “GATGATTGTTCTCCCAGCTGATGAATTAAAGTGCTCGAGTAAACAAATTTTCCTAATCTTTCTGTTCAAGCGCCATCTAC” stands 0.358.
Under “GATGATTGTTCTCCCAGCTGATGAATTAAGGCGTTCGAGTAAACAAATTTTCCTAATCTTTCTGTTCAAGCGCCATCTAC” stands 1.44.
Under “GATGATTGTTCTCCCAGCTGATGAATTACTTCATTCGAGTAAACAAATTTTCCTAATCTTTCTGTTCAAGCGCCATCTAC” stands 0.35.
Consider “GATGATTGTTCTCCCAGCTGATGAATTATCAGTATCGAGTAAACAAATTTTCCTAATCTTTCTGTTCAAGCGCCATCTAC”, for which the binding signal (RPM ratio (pull-down/input)) came to 0.498.
Regarding “GATGATTGTTCTCCCAGCTGATGAATTGGTACTCTCGAGTAAACAAATTTTCCTAATCTTTCTGTTCAAGCGCCATCTAC”, the binding signal (RPM ratio (pull-down/input)) came out at 0.554.
Next, “GATGATTGTTCTCCCAGCTGATGAATTAGAGACTTCGAGTAAACAAATTTTCCTAATCTTTCTGTTCAAGCGCCATCTAC”: 0.502; “GATGATTGTTCTCCCAGCTGATGAATTTCTAAGGTCGAGTAAACAAATTTTCCTAATCTTTCTGTTCAAGCGCCATCTAC”: 0.189; “GATGATTGTTCTCCCAGCTGATGAATTAACGATGTCGAGTAAACAAATTTTCCTAATCTTTCTGTTCAAGCGCCATCTAC”: 0.4.
Under “GATGATTGTTCTCCCAGCTGATGAATTCACGCGTTCGAGTAAACAAATTTTCCTAATCTTTCTGTTCAAGCGCCATCTAC” stands 1.46.
Under “GATGATTGTTCTCCCAGCTGATGAATTGTTAGGCTCGAGTAAACAAATTTTCCTAATCTTTCTGTTCAAGCGCCATCTAC” stands 0.88.
Regarding “GATGATTGTTCTCCCAGCTGATGAATTACGAACCTCGAGTAAACAAATTTTCCTAATCTTTCTGTTCAAGCGCCATCTAC”, the binding signal (RPM ratio (pull-down/input)) was 0.325.
Consider “GATGATTGTTCTCCCAGCTGATGAATTTCTTGACTCGAGTAAACAAATTTTCCTAATCTTTCTGTTCAAGCGCCATCTAC”, for which the binding signal (RPM ratio (pull-down/input)) is 0.549.
Next, “GATGATTGTTCTCCCAGCTGATGAATTCTACTAATCGAGTAAACAAATTTTCCTAATCTTTCTGTTCAAGCGCCATCTAC”: 0.28.
As to “GATGATTGTTCTCCCAGCTGATGAATTTCCAGAATCGAGTAAACAAATTTTCCTAATCTTTCTGTTCAAGCGCCATCTAC”, the binding signal (RPM ratio (pull-down/input)) came out at 0.144.
Under “GATGATTGTTCTCCCAGCTGATGAATTCTACACTTCGAGTAAACAAATTTTCCTAATCTTTCTGTTCAAGCGCCATCTAC” stands 0.354.
Next, “GATGATTGTTCTCCCAGCTGATGAATTACACCGATCGAGTAAACAAATTTTCCTAATCTTTCTGTTCAAGCGCCATCTAC”: 0.458.
Regarding “GATGATTGTTCTCCCAGCTGATGAATTTAAAGCGTCGAGTAAACAAATTTTCCTAATCTTTCTGTTCAAGCGCCATCTAC”, the binding signal (RPM ratio (pull-down/input)) stood at 0.538.
Under “GATGATTGTTCTCCCAGCTGATGAATTACTGCGATCGAGTAAACAAATTTTCCTAATCTTTCTGTTCAAGCGCCATCTAC” stands 0.586; under “GATGATTGTTCTCCCAGCTGATGAATTTCTCGCATCGAGTAAACAAATTTTCCTAATCTTTCTGTTCAAGCGCCATCTAC”, 0.861.
Under “GATGATTGTTCTCCCAGCTGATGAATTGGCGACCTCGAGTAAACAAATTTTCCTAATCTTTCTGTTCAAGCGCCATCTAC” stands 0.465.
Under “GATGATTGTTCTCCCAGCTGATGAATTACCTAGGTCGAGTAAACAAATTTTCCTAATCTTTCTGTTCAAGCGCCATCTAC” stands 0.184; under “GATGATTGTTCTCCCAGCTGATGAATTTCTAGCCTCGAGTAAACAAATTTTCCTAATCTTTCTGTTCAAGCGCCATCTAC”, 0.347; under “GATGATTGTTCTCCCAGCTGATGAATTCTAGTGCTCGAGTAAACAAATTTTCCTAATCTTTCTGTTCAAGCGCCATCTAC”, 0.438.
Turning to “GATGATTGTTCTCCCAGCTGATGAATTCAGAGCCTCGAGTAAACAAATTTTCCTAATCTTTCTGTTCAAGCGCCATCTAC”, the binding signal (RPM ratio (pull-down/input)) is 0.42.
Regarding “GATGATTGTTCTCCCAGCTGATGAATTAATCTGCTCGAGTAAACAAATTTTCCTAATCTTTCTGTTCAAGCGCCATCTAC”, the binding signal (RPM ratio (pull-down/input)) turned out to be 0.34.
Next, “GATGATTGTTCTCCCAGCTGATGAATTAAGCGTGTCGAGTAAACAAATTTTCCTAATCTTTCTGTTCAAGCGCCATCTAC”: 3.59; “GATGATTGTTCTCCCAGCTGATGAATTGTGTATTTCGAGTAAACAAATTTTCCTAATCTTTCTGTTCAAGCGCCATCTAC”: 5.82.
Under “GATGATTGTTCTCCCAGCTGATGAATTCGGGGCGTCGAGTAAACAAATTTTCCTAATCTTTCTGTTCAAGCGCCATCTAC” stands 0.51; under “GATGATTGTTCTCCCAGCTGATGAATTCCTGCCCTCGAGTAAACAAATTTTCCTAATCTTTCTGTTCAAGCGCCATCTAC”, 0.321.
Next, “GATGATTGTTCTCCCAGCTGATGAATTGGCTGTATCGAGTAAACAAATTTTCCTAATCTTTCTGTTCAAGCGCCATCTAC”: 0.902.
Take “GATGATTGTTCTCCCAGCTGATGAATTTTCAAGCTCGAGTAAACAAATTTTCCTAATCTTTCTGTTCAAGCGCCATCTAC”: the binding signal (RPM ratio (pull-down/input)) stood at 0.223.
Under “GATGATTGTTCTCCCAGCTGATGAATTCATGCCGTCGAGTAAACAAATTTTCCTAATCTTTCTGTTCAAGCGCCATCTAC” stands 0.721; under “GATGATTGTTCTCCCAGCTGATGAATTCGTTAAATCGAGTAAACAAATTTTCCTAATCTTTCTGTTCAAGCGCCATCTAC”, 0.213; under “GATGATTGTTCTCCCAGCTGATGAATTCAGTCTTTCGAGTAAACAAATTTTCCTAATCTTTCTGTTCAAGCGCCATCTAC”, 0.561.
Under “GATGATTGTTCTCCCAGCTGATGAATTGAGCTGCTCGAGTAAACAAATTTTCCTAATCTTTCTGTTCAAGCGCCATCTAC” stands 0.424; under “GATGATTGTTCTCCCAGCTGATGAATTTATTCGTTCGAGTAAACAAATTTTCCTAATCTTTCTGTTCAAGCGCCATCTAC”, 1.02; under “GATGATTGTTCTCCCAGCTGATGAATTATCTTGGTCGAGTAAACAAATTTTCCTAATCTTTCTGTTCAAGCGCCATCTAC”, 0.323.
Under “GATGATTGTTCTCCCAGCTGATGAATTCCATATCTCGAGTAAACAAATTTTCCTAATCTTTCTGTTCAAGCGCCATCTAC” stands 0.632.
